Publication PMC4336329 (PLoS ONE, 2015)
Hit rate of the full screen: of about 310,000 compounds, about 2,200 (0.71%) showed an effect of 50% or more. Effects have a minus sign here. This is one part of the list.

molecular target: human ether-à-go-go-related gene (hERG) potassium channel (human, UniProt Q12809); experiment: primary screen, population patch clamp on CHO cells stably expressing hERG
Sequence (Q12809 whole entry, looked up): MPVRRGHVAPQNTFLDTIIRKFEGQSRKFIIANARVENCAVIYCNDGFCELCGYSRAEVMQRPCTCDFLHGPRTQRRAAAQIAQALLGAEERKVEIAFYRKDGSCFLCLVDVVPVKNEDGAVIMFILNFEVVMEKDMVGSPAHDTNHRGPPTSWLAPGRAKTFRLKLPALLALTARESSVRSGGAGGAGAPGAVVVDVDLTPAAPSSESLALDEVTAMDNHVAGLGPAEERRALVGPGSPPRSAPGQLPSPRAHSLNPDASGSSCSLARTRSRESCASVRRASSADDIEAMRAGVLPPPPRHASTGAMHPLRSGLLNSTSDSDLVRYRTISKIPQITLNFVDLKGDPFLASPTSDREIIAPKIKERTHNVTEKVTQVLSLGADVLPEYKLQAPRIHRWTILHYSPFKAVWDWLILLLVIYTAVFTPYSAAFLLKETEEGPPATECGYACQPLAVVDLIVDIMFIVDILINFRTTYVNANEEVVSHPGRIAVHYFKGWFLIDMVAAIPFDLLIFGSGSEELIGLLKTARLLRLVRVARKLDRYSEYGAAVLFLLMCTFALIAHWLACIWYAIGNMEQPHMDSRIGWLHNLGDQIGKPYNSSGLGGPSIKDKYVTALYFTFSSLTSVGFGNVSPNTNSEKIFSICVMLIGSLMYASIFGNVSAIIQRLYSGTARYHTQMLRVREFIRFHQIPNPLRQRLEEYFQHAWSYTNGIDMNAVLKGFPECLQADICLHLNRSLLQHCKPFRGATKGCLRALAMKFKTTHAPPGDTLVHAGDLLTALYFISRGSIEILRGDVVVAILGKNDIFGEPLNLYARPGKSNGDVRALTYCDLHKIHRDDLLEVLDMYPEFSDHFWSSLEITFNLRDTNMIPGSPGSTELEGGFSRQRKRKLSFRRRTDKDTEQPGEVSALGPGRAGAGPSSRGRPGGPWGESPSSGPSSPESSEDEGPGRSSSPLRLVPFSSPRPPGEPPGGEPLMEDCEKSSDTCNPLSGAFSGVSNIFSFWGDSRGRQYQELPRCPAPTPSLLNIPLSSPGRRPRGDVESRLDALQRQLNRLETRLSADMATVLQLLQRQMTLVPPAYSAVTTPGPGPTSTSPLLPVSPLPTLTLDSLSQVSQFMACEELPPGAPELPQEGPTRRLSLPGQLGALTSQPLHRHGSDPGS

Structure (SMILES)	hERG current change (%, negative = inhibition) at 1uM [%]
CCOc1ccc(NC(=S)N2CCCN(Cc3cc(C)ccc3C)C2)cc1	-7.88
COc1ccc(N(CC(=O)NC2CCCC2)C(=O)CCC(=O)Nc2cc(C)on2)c(OC)c1	3.62
O=C(O)CCc1ccc(-c2ccc(Br)cc2)n1NC(=O)c1ccc([N+](=O)[O-])cc1	17.6
COc1ccc(Br)cc1/C=N/n1c(C)nnc1C	6.84
O=C(NCc1ccco1)c1cc2sccc2n1Cc1ccccc1	-6.25
CCOC(=O)CSc1nnc(-c2cccc(Br)c2)o1	12.9
COc1ccc(OCCNc2cc(N3CCCCC3)ccc2[N+](=O)[O-])cc1	8.72
Cc1nnc(SC(C(=O)Nc2ccc(Cl)c([N+](=O)[O-])c2)c2ccccc2)[nH]c1=O (centres unmarked)	14.6
COc1cccc(OC)c1C(=O)Nc1ccc(S(=O)(=O)Nc2ncccn2)cc1	4.77
Cc1ccc2cc(CCNC(=O)C(C)(C)C)c(=O)[nH]c2c1	11.6
c1cncc(-c2nnc(-c3ccco3)o2)c1	9.24
COc1ccccc1C(=O)NCC(=O)Nc1cccnc1	15.6
Cc1cc(Cl)c(O)c(-n2nc3ccccc3n2)c1	1.03
O=[N+]([O-])c1cccc(CSc2ncnc3ccccc23)c1	14.6
CCOC(=O)C1CCN(C(=O)C(CCSC)NC(=O)COc2ccccc2)CC1 (centres unmarked)	-11
Cc1ccc(Cn2nnc3c(=O)n(CC(=O)c4ccccc4)cnc32)cc1	6.59
COCCCNC(=O)c1c(NC(=O)c2ccccc2Cl)n(Cc2ccccc2)c2nc3ccccc3nc12	10.5
Cc1ccc(S(=O)(=O)NC2=NCN(C3CCCCC3)CN2)cc1	12.8
Cc1ccc(CNC(=O)c2cc(-c3cc(C)cc(C)c3O)n[nH]2)cc1	1.75
O=C(NC1CCOc2ccccc21)c1ccc(Cl)nc1 (centres unmarked)	11.9
COc1ccc(C(=O)Nc2cccc(NC(=O)c3ccc(OC)c(OC)c3)n2)cc1OC	11.1
Cc1nc(-c2ccccc2)nc2n[nH]c(N)c12	13.3

Structure (SMILES)	hERG current change (%, negative = inhibition) at 1uM [%]
COc1cc(C(=O)Nn2cnnc2)ccc1OC(F)F	14.8
Cc1ccc(C(=O)N/C(=C/c2ccccc2)C(=O)NC(Cc2ccccc2)C(=O)O)cc1 (centres unmarked)	13.9
COC(=O)c1ccc(CNC(=O)c2ccc(COc3ccccc3)cc2)cc1	8.6
Cc1c(C(=O)Nc2nonc2-c2ccc(F)cc2)oc2ccc(F)cc12	12.1
COc1ccc(-c2c(S(=O)(=O)c3ccccc3)cnn2-c2ccccc2)cc1	4.42
Cc1ccccc1NC(=O)c1c(C)[nH]c(=S)c(C#N)c1-c1ccc(Cl)cc1	14.7
CCOC(=O)c1csc(Nc2nc3ccc(F)cc3s2)n1	1.25
CSc1ccc(CN(C)CC(=O)NC(C)c2ccccc2)cc1 (centres unmarked)	-15.4
COC(=O)c1ccccc1NC(=O)CN(CCc1ccccc1)S(C)(=O)=O	-3.14
CN1CC(C(=O)c2ccc([N+](=O)[O-])cc2)C(c2ccc(Cl)cc2)C1 (centres unmarked)	-77.1
Nc1nc2nonc2nc1N	6.3
Cc1cc(NC(=O)CSc2nc3ccccc3c(=O)n2Cc2ccc(F)cc2)no1	11.7
COc1ccc(/C=N/NC(=O)CN2CCN(Cc3ccccc3)CC2)cc1Br	-33.9
COc1ccc2cc(S(=O)(=O)N3CCCC(C)C3)ccc2c1 (centres unmarked)	13.2
CC(C)C1Nc2c(C(=O)[O-])cccc2C(Nc2ccccc2C(=O)[O-])C1(C)C.[K+] (centres unmarked)	6.86
CCc1nnc(NC(=O)c2nn(-c3ccccc3)nc2C)s1	9.69
Cc1nc2cccc(C(=O)NCc3ccccc3)c2o1	11.2
CCOC(=O)C(NC(C)=O)(NS(=O)(=O)c1ccccc1)C(F)(F)F (centres unmarked)	14.7
O=C(COc1ncnc2ccccc12)N1CCN(S(=O)(=O)c2ccccc2)CC1	13.1
CS(=O)(=O)c1ccc(Cl)c(NC(=O)CCN2C(=O)C3CC=CCC3C2=O)c1 (centres unmarked)	12.5
Cc1ccc(S(=O)(=O)CCc2nc3ccccc3s2)cc1C	4.25
C/C(=N/N=C/c1ccccc1O)c1ccccc1O	19.2

Structure (SMILES)	hERG current change (%, negative = inhibition) at 1uM [%]
Cc1c(NC(=S)NC(=O)c2ccc(Cl)cc2)c(=O)n(-c2ccccc2)n1C	3.81
CCC(=O)Nc1cccc(NC(=O)c2ccc3c(c2)OCCO3)c1	8.27
CN(C(=O)CSc1nc(-c2ccccc2)c(-c2ccccc2)o1)C1CCS(=O)(=O)C1 (centres unmarked)	3.1
O=C(Cn1nc(-c2ccccc2F)ccc1=O)NCc1ccc2c(c1)OCO2	-4.51
CCOC(=O)C1=C(O)/C(=C/c2cc(OC)c(OC)c(OC)c2)N=C1C	12.2
CCN(CC)S(=O)(=O)c1cccc(NC(=O)COC(=O)/C=C/c2ccco2)c1	-2.5
O=C1CN(c2nc(-c3ccccc3)c3ccccc3n2)c2ccccc2N1	15.6
CCc1ccc(N2CC(C(=O)Nc3ccc(F)cc3)CC2=O)cc1 (centres unmarked)	19.6
CC(C)/C=C/C(=O)N1CCC(N2CCC(C(=O)NCc3ccccn3)CC2)CC1	13.1
N#CCCN(C(=O)COC(=O)CCC(=O)c1ccc(F)cc1)c1ccccc1	1.38
COc1ccc(Cc2nnc(N/N=C/c3ccc(N(C)C)cc3)[nH]c2=O)cc1OC	11.5
O=C(/C=C/c1ccc(Cl)cc1)NC(=S)Nc1ccc(NC(=O)c2ccco2)cc1	9.58
Cc1ccc(S(=O)(=O)N2CC(C)N(C(=O)N3CCOCC3)C2C)cc1 (centres unmarked)	28.2
O=C(N/N=C/c1c[nH]c2c1ccc1ccccc12)c1ccc([N+](=O)[O-])cc1	7.89
O=C(O)c1ccc(CNCc2cccc(Oc3ccccc3)c2)cc1	10.1
Cc1c(C(=O)N2CCCC2)sc(NC(=O)c2ccco2)c1C#N	11
C=CCn1cc(C(=O)NCc2ccc(Cl)cc2)c(=O)c2cc(S(=O)(=O)N(CC)CC)ccc21	9.81
CC(C)(C)N1C(=O)[C@H]2[C@@H](c3ccc(Br)cc3)N3C(=O)N(c4ccccc4)C(=O)[C@@]3(Cc3ccccc3)[C@H]2C1=O	1.42
COc1ccc2[nH]c(-c3ccc(C)cc3)cc(=O)c2c1	15.7
COc1ccccc1CC(=O)N1CCN(c2ccccc2)CC1	15.1
Cc1ccc(-n2c(=O)[nH]c3ncccc3c2=O)cc1	14.4
O=C(Cn1nc(C(=O)O)c2ccccc2c1=O)Nc1ccc(F)cc1	15.3

Structure (SMILES)	hERG current change (%, negative = inhibition) at 1uM [%]
Cc1ccc(N(CC(O)Cn2nc(C)cc2C)S(=O)(=O)c2ccc3ccccc3c2)cc1 (centres unmarked)	13.7
Cc1ccc(C(=O)N/C(=C/c2ccc(C(C)C)cc2)C(=O)NCCCN2CCOCC2)cc1	-22
CCC(=O)Nc1nnc(S(=O)(=O)N(C)c2cc(C)cc(C)c2)s1	11.6
Cc1ccc(-c2nn(-c3ccccc3)cc2/C=C(\C#N)c2cccc(C#N)c2)o1	3.49
CC1(NC(=O)c2cccc(S(=O)(=O)N3CCN(c4ccccc4)CC3)c2)CCS(=O)(=O)C1 (centres unmarked)	5.75
c1cc2c(cc1-c1[nH]ncc1CN1CC3C[C@@H]4CC1C[C@H](C3)C4)OCO2	-7.36
CCN1CCN(C(=O)/C=C/c2ccc(C(C)C)cc2)CC1	-7.83
CCN(CC)c1ccc(NC(=O)C2CC(=O)N(Cc3ccccc3)C2)cc1 (centres unmarked)	9.96
CCOC(=O)c1c(C)c(C(=O)NCc2cccnc2)c(C)n1C	12.4
Cc1cc(N2CCN(CC(O)C(F)(F)F)CC2)c2ccccc2n1 (centres unmarked)	1.42
Cc1ccc(N(CC(=O)Nc2ccccc2-c2ccccc2)S(=O)(=O)c2ccccc2)c(C)c1	-1.18
Cc1cccc(NS(=O)(=O)c2ccc3[nH]c(=O)[nH]c3c2)c1C	13.7
COCCCn1c(=O)c2ccccc2n(CC(=O)NC2CCCC2)c1=O	16.9
CCNC(=O)C(Sc1ccccc1)c1ccccc1 (centres unmarked)	4.72
COc1ccc(-n2nc(C(=O)NCC(=O)NCC3CCCO3)c3ccccc3c2=O)c(OC)c1 (centres unmarked)	-6.84
Cc1cc(C)cc(N(C(=O)c2csnn2)C(C(=O)NC(C)(C)C)c2ccccn2)c1 (centres unmarked)	9.68
CCN1CCN(C(=S)c2ccc(Cl)cc2)CC1	-3.24
CC(=O)Nc1ccc(Nc2cc(C)nc3ccccc23)cc1	9.22
Cn1c(=O)c2cn(-c3cccc4ccccc34)cc2n(C)c1=O	2.3
COc1ccc(C(=O)Nc2nnc(-c3ccccc3)s2)cc1	12.9
